Measurements: the supplement of paper PMC10338343
± gives the standard deviation. Whole data set: some 6,600 sequences, median “pre-steady-state target cleavage rate” near 0.07, cut for the highest 2% near 0.72. This is a selection; strong and weak results do not stand in their true shares.

test system: MIWI (PIWIL1) piRISC loaded with Kctd7 piRNA (30 nt); assay: pre-steady-state target cleavage rate (min^-1); MIWI and MILI are mouse PIWI proteins and EfPiwi is from a freshwater sponge; tags in brackets are library labels; higher = faster piRNA-guided slicing of the target; settings: guide: Kctd7 piRNA 5'p-UGUUAAUCUCUCAGAGAAGGUGACAGUGAU; auxiliary factor: 500 nM mouse GTSF1
Description: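 Cleave-'n-Seq: a library of target RNAs (target site embedded in constant flanks, ACAGCATTCCGCGTTAGTGATATCCG... 5' flank; DNA-blocked outside the site) at 0.1 nM was incubated with 1 nM active mouse MILI or MIWI piRISC (synthetic 5'-monophosphorylated piRNA guide) with or without 500 nM mouse GTSF1 at 33 °C for 1 min to 16 h. Uncleaved targets were sequenced and normalised to non-target controls, and the pooled three trials were fitted to a burst-and-steady-state model to give the pre-steady-state cleavage rate (min^-1; k3 is constrained to at most 1e-4). Sequence is the target site only; target names encode pairing extent (gX:gY) and contiguous / 1-mismatch / 2-mismatch / bulge geometry. Fits with R² ≤ 0 are excluded.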

Row | Sequence | pre-steady-state target cleavage rate
1 | UAGUGAGUCACCUUCAUCUGAGAGAUUAACA | 0.13 ± 0.031
2 | UAGUGAGUCACCUUCUCUGAGCGAUUAACA | 0.225 ± 0.021
3 | UAGUGAGUCUCCUUCUCUGAGAGAUAUUGA | 0.00856 ± 0.0039
4 | UACACUGUCACCUUCUCUCAGAGAUUAACA | 0.126 ± 0.014
5 | UAGUGUGUACCUUCUCUGAGAGAUUAACA | 0.482 ± 0.031
6 | UAGUGACAGAGCUUCUCUGAGAGAUUAUCA | 0.0105 ± 0.0034
7 | AUCACUGUCACCUACUCUGAGAGUUUAACA | 0.279 ± 0.046
8 | UUCACUGUCACGUUCACUGAGAGAUUAACA | 0.401 ± 0.024
9 | UAGUGACAGUGGAACUCUCUCAGAUUAACA | < 0.0001
10 | UAGUCAGUCACCUUCUCUGAGAGAUUAUCA | 0.323 ± 0.039
11 | UACACUGUCGCCUUCUCUGAGAGAUUAACA | 0.708 ± 0.042
12 | UAGUCUGUCACCAACUCUGAGAGAUUAAGA | 0.0487 ± 0.011
13 | UAGUGAGUCAGCUUCUCUCAGAGAUUAACA | 0.0683 ± 0.0065
14 | UAGACUGUCUCCUUCUCUGAGAGAUUUACA | 0.327 ± 0.039
15 | UAGUGACACACCUACUCUGAGACAUUAACA | 0.0101 ± 0.0035
16 | UAGUGAGUCACUUCUCUGAGAGAUUAACA | 0.305 ± 0.026
17 | UACACAGUCACCUUCUCUGAGACAUUAACA | 0.226 ± 0.021
18 | UAGACUGUCACCUUCUCUGAGUCAUUAACA | 0.00259 ± 0.0019
19 | AUCACUGUCACGAUCUCUGAGAGAUUAACA | 0.634 ± 0.04
20 | UAGUCUGUCACCUUCUCUGAGAGAUUGACA | 0.255 ± 0.04
21 | UAGUGUGUCACGUUCUCUGAGAGAUAAACA | 0.31 ± 0.03
22 | UAGUGACUCACCAAGUCUGAGAGAUUAACA | 0.00555 ± 0.0032
23 | UUCACUGUCACCUGUCUCUGAGAGAUUAACA | 0.618 ± 0.029
24 | UAGUGACAGUGGUUCUCUGACAGAUUAUCA | < 0.0001
25 | UUACACUGUCACCUUCUCUGAGAGAUUAACA | 0.769 ± 0.044

Row | Sequence | pre-steady-state target cleavage rate
26 | UUGACUGUCACCUUCUCUGAGAGAUUUUGA | 0.00803 ± 0.0039
27 | UAGACUGUCACCUUCUCUGAGAGAUUAAGA | 0.192 ± 0.026
28 | UACUCUGUCACCUUCUCUGAGAGUUUAACA | 0.781 ± 0.098
29 | UAGUGAGUCACCUUCUCUGAGAGUUAUUGA | 0.112 ± 0.029
30 | UAGACUGCCACCUUCUCUGAGAGAUUAACA | 0.705 ± 0.026
31 | AUCACUGUCACGUUCUCUGAGAGAAUAACA | 0.197 ± 0.032
32 | UUCACUGUCUGCUUCUCUGAGAGAUUAAGA | 0.111 ± 0.018
33 | UAGUGACAGACCUUCUGUGAGUGAUUAACA | 0.00843 ± 0.0031
34 | UAGUCUGUCACCGUCUCUGAGAGAUUAACA | 0.612 ± 0.029
35 | UAGAGACUCACCUUCUCUGAGAGAUAUUGA | 0.0169 ± 0.0054
36 | UAGUGUGUCACCUUCUCUGACGAGAUUAACA | 0.0103 ± 0.0059
37 | UAGUGUGUCUCCUUCUCUCAGAGAUUAACA | 0.0709 ± 0.0076
38 | UAGACUGUGACCUUCUCUGAGUGAUUAACA | 0.0166 ± 0.0032
39 | UAGUCUGUCACCUUCUCUGAGAGAUUAGACA | 0.138 ± 0.041
40 | UAGUCUGUCUGCUUCUCUGAGAGAUUAACA | 0.605 ± 0.048
41 | UAGUGUGUCACCUACUCUGAGACAUUAACA | 0.116 ± 0.018
42 | UUCACUGUCACCUUCUGUGAGAGAUUAUCA | 0.175 ± 0.045
43 | AUCACUGUCACCUUGUCUGAGAGAUUUUGA | 1.4 ± 0.36
44 | UAGACUGUCUCCUACUCUGAGAGAUUAACA | 0.708 ± 0.049
45 | UAGACUGUCACGUUCUGUGAGAGAUUAACA | 0.509 ± 0.028
46 | AUCACUGUCAGGUUCUCUGAGAGAUUAUGA | 0.0157 ± 0.0039
47 | UAGUGACAGUGGAAGAGACUUAGAUUAACA | < 0.0001
48 | UAGUGUGUCUGCUUCUCUGAGAGAUUAAGA | 0.0828 ± 0.016
49 | AUCACUGUACACCUUCUCUGAGAGAUUAACA | 0.8 ± 0.055
50 | UAGACUGUCACCUUCUCAGAGAGAAUAACA | 0.0347 ± 0.0078

Row | Sequence | pre-steady-state target cleavage rate
51 | UAGACUGUCACCUACUCUGAGAGAUUAACA | 0.666 ± 0.049
52 | UAGUGACAGAGCUUCUCUGAGACAUUAACA | 0.00901 ± 0.0027
53 | AUGUCUGUCACCUUCUCUGAGAGAUUUUGA | 0.026 ± 0.0093
54 | UAGUGACUCACCAUCUCUGAGAGAUUAUCA | 0.17 ± 0.035
55 | UUCACUGUCACCUUCUUCUGAGAGAUUAACA | 0.115 ± 0.028
56 | UAGUGAGUCACCUUCUCUCAGAGUUUAACA | 0.0308 ± 0.0074
57 | UACAGUGUCACCUUCUCUGAGAGAUAAACA | 0.344 ± 0.04
58 | UAGUGUGUCACGUUCUCUGAGAGAUUAAGA | 0.123 ± 0.021
59 | UAGUGACUCUCCUUCUGUGAGAGAUUAACA | 0.0463 ± 0.0069
60 | UACACUGUCACCUACUCUGAGUGAUUAACA | 0.0298 ± 0.0053
61 | UAGUGUGUGCACCUUCUCUGAGAGAUUAACA | 0.581 ± 0.049
62 | UAGUGACUCACCUUCUCUGACAGAUUAUGA | 0.00461 ± 0.0027
63 | UAGUGAGUCACCAAGUCUGAGAGAUUAACA | 0.0365 ± 0.0067
64 | UAGUGACUCACCUUCACUGAGAGAUAUUGA | 0.00685 ± 0.0029
65 | UAGUGACAGACCUUCUCUGAGAGAUUUAGA | 0.00342 ± 0.0031
66 | UAGUGACAGUGCUUCUGUGAGAGAUUAACA | 0.012 ± 0.0037
67 | UAGUGACUCACCUUCUCUGAGACAAUAACA | 0.0072 ± 0.0031
68 | UAGUGACAGACCUUCUCUGAGAGAUUAAUA | 0.141 ± 0.022
69 | UAGUGACACGCCUUCUCUGAGAGAUUAACA | 0.353 ± 0.031
70 | UACACUGUCACCUUCUCUGAGAGUAUAACA | 0.195 ± 0.033
71 | UAGUCUGUCACCAUCACUGAGAGAUUAACA | 0.301 ± 0.02
72 | UAGUGACUCACCUUGUCUCAGAGAUUAACA | 0.00485 ± 0.0027
73 | UACACUGUCACCUACUCUGAGAGAAUAACA | 0.132 ± 0.025
